Residue numbers refer to the chain shown, from its start. No constants are given. Whether binding was seen depends on the method and setting. Binding seen in cells or lysates may run through a third protein. Some binding calls cover weakened binding; strength is not graded here. For some assays here: Tags and fused reporters may be left off the sequences shown.
Tests used:
[1] = biological target: T1, Bem1-Cub-RUra3 (S. cerevisiae) (UniProt P29366); test: split reporter; Split-Ub as a1, but Nub fusions expressed from their native promoters; scored after 4 d on 5-FOA medium
T1 sequence: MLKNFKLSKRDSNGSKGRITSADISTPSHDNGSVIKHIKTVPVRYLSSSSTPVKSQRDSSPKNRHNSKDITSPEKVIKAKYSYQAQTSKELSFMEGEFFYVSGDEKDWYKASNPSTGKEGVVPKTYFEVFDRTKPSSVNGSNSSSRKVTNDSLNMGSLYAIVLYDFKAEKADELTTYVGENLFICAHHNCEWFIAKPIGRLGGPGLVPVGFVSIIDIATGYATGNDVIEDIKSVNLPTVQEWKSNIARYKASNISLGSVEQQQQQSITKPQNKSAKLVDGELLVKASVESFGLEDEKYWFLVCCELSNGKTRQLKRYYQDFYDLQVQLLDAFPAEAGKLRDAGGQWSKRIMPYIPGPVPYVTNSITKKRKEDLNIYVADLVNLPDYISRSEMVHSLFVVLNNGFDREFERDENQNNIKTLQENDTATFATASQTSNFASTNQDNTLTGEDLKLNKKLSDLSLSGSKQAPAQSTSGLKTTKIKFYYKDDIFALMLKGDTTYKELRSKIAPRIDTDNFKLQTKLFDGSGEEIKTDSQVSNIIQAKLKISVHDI

[2] = biological target: T2, Bem1-mCherry-Cub-RGFP (S. cerevisiae) (UniProt P29366); test: split reporter; SPLIFF (split-ubiquitin with mCherry-Cub-RGFP, CCG): a-cells with the CCG fusion mated with α-cells with Nub-HA fusions; conversion of CCG to CC measured by time-lapse microscopy at the site of cell fusion (PCDI); a significant positive slope = interaction
T2 sequence: T1 sequence

[3] = biological target: T2, Bem1-mCherry-Cub-RGFP (S. cerevisiae); test: split reporter; SPLIFF as a9, measured at the cell front during bud site assembly and bud growth (PCDII)
[4] = biological target: T2, Bem1-mCherry-Cub-RGFP (S. cerevisiae); test: split reporter; SPLIFF as a9, measured at the bud neck from completion of acto-myosin ring contraction until abscission (PCDIII)
[5] = biological target: T3, Bem1WK-Cub-RUra3 (S. cerevisiae) (UniProt P29366); test: split reporter; split-ubiquitin (Split-Ub): a-cells with a Cub-RUra3 (CRU) fusion mated with α-cells with Nub fusions (P_CUP1), diploids as quadruplets on SD medium with 1 mg/ml 5-FOA and copper; growth = interaction; detects direct and indirect interactions
T3 sequence: T1 sequence with W192K

[6] = biological target: T4, Boi1CCG (S. cerevisiae) (UniProt P38041); test: split reporter; SPLIFF (split-ubiquitin with mCherry-Cub-RGFP, CCG): a-cells with the CCG fusion mated with α-cells with Nub-HA fusions; conversion of CCG to CC measured by time-lapse microscopy at the site of cell fusion (PCDI); a significant positive slope = interaction
T4 sequence: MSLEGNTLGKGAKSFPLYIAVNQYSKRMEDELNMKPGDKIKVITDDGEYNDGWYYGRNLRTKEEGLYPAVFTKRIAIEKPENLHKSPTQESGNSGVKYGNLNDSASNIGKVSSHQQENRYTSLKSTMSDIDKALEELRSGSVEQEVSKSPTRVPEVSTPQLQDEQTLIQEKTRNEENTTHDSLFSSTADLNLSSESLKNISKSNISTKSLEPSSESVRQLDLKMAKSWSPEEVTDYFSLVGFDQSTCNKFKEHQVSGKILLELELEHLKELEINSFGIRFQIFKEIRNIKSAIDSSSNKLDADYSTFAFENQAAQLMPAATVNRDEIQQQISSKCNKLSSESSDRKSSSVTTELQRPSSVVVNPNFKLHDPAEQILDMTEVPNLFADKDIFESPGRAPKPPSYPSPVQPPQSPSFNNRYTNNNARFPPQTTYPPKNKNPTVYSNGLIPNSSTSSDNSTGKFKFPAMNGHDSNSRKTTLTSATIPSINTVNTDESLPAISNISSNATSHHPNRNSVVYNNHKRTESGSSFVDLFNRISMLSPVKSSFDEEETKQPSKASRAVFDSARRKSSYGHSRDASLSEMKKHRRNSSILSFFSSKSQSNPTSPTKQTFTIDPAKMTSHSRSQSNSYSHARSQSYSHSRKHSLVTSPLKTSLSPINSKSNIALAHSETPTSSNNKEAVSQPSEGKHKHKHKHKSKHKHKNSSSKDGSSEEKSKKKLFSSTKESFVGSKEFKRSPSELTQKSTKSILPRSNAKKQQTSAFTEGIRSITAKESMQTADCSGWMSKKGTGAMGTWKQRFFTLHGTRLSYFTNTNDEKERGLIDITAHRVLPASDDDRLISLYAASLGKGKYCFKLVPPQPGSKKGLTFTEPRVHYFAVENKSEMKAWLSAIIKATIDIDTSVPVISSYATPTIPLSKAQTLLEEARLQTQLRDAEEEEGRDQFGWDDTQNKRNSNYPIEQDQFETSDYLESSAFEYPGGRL

[7] = biological target: T4, Boi1CCG (S. cerevisiae); test: split reporter; SPLIFF as a9, measured at the cell front during bud site assembly and bud growth (PCDII)
[8] = biological target: T4, Boi1CCG (S. cerevisiae); test: split reporter; SPLIFF as a9, measured at the bud neck from completion of acto-myosin ring contraction until abscission (PCDIII)
[9] = biological target: T5, Boi2CRU (S. cerevisiae) (UniProt P39969); test: split reporter; split-ubiquitin (Split-Ub): CRU and Nub fusions co-expressed in yeast cells, spotted in 10-fold serial dilutions on medium with 1 mg/ml 5-FOA and copper, 30°C; growth = interaction
T5 sequence: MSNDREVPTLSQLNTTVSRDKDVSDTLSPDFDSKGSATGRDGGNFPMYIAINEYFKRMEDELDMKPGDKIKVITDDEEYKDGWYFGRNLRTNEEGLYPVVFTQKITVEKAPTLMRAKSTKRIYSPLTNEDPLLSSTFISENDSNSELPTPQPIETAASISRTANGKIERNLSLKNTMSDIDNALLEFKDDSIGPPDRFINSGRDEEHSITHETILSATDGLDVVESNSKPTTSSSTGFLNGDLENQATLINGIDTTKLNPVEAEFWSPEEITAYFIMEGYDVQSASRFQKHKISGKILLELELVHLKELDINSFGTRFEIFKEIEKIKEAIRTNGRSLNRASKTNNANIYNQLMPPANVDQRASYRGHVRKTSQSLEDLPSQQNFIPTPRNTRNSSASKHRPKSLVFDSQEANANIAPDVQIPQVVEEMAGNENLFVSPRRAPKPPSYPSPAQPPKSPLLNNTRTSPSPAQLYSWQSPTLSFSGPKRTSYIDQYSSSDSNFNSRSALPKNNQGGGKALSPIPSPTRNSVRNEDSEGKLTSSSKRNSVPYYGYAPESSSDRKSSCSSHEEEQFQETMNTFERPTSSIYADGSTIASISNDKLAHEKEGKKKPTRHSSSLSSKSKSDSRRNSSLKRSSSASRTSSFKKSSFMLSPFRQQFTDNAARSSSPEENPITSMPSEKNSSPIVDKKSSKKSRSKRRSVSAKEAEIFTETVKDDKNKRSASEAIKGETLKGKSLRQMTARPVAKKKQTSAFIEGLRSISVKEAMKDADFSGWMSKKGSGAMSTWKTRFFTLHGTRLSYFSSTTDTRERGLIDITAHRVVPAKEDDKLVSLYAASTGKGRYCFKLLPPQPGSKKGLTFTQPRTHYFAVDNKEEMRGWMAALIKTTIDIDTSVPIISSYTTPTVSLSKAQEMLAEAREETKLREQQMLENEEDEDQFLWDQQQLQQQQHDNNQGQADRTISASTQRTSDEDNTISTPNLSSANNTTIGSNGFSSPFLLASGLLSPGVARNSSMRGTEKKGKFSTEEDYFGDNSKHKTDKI

[10] = biological target: T6, Boi1CRU (S. cerevisiae) (UniProt P38041); test: as above
T6 sequence: T4 sequence

[11] = biological target: T1, Bem1-Cub-RUra3 (S. cerevisiae); test: split reporter; Split-Ub as a2, in strains with a deletion of BOI1 or BOI2, or boi2∆ boi1_(PxxP∆)

B1: Nub-Rsr1 (protein, UniProt P13856 1-272)
chain: MRDYKLVVLGAGGVGKSCLTVQFVQGVYLDTYDPTIEDSYRKTIEIDNKVFDLEILDTAGIAQFTAMRELYIKSGMGFLLVYSVTDRQSLEELMELREQVLRIKDSDRVPMVLIGNKADLINERVISVEEGIEVSSKWGRVPFYETSALLRSNVDEVFVDLVRQIIRNEMESVAVKDARNQSQQFSKIESPSTRLPSSAKQDTKQSNNKQSSKGLYNKSSQGQAKVKQSTPVNEKHKPSHAVPKSGSSNRTGISATSQQKKKKKNASTCTIL
binding [1]: binds | binding [2]: binds | binding [3]: binds | binding [4]: binds

B2: Nub-Nba1 (protein, UniProt Q08229 1-501)
chain: MSEEREENGISRATLNTQRLSAMIDSLNNEKDDRLFPSPTTTRTMITEEKADQSDVFKPPSRLLRSPAGDVSLPPGDNRSSMISNYSGIIQEGVEVSYVVKNRQQTQERRTSKDSNSLYSLKEPVSKNELPSLPMLPSEATLTKHLSDNQSTKSNTNADEIVIKPVTNAKPVGRFNSNTSKKVEGRGSLKLLSSPLRQEKVMRSSIGSGNLASESGSSTYNTKFHQSIQEQLEEEEEGNVSDKLSIVSSVIPELYTTTNEAPKAINPIRSETNDYNPTIPPRSKDRPRSRLFIEEGDGEGDLLTEEILPTPVQPGGHYKNSSQISTVSEQKSESYYSAATSMPPEEETYLTRPLPSTPNEDSRVTSNLKRDDTLKAIHDRANHTSTSTNKQDDDMYEDIIEETPKKTKLKKDTKKKLNKKKSVKELRSFDIDTLNQLLSVTKGTLIGSEFAQLGMKIEEKRALERLVDSLSRLTADMVLDPDRYEEGLKRLDKATKALEGF
binding [5]: no binding | binding [6]: no binding (condition: during PCDI (cell fusion)) | binding [7]: no binding (condition: during PCDII (bud growth)) | binding [8]: binds | binding [9]: binds | binding [10]: binds

B3: Bem1-Cub-RUra3 (protein, UniProt P29366 1-551)
chain: T1 sequence
binding [11]: binds weakly
